# Data as given in article PMC4336329 (PLoS ONE, 2015).
# Among all 310,000 compounds or so, about 14,000 (4.5%) showed an effect of 50% or more. Effects have a minus sign here. Some of the results follow.
# Target: human ether-à-go-go-related gene (hERG) potassium channel (human, UniProt Q12809)
# Assay: primary screen, population patch clamp on CHO cells stably expressing hERG
# 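Further: peak tail current of the secondary pulse compared with the same well before compound.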
# human ether-à-go-go-related gene (hERG) potassium channel, sequence (Q12809 whole entry, looked up): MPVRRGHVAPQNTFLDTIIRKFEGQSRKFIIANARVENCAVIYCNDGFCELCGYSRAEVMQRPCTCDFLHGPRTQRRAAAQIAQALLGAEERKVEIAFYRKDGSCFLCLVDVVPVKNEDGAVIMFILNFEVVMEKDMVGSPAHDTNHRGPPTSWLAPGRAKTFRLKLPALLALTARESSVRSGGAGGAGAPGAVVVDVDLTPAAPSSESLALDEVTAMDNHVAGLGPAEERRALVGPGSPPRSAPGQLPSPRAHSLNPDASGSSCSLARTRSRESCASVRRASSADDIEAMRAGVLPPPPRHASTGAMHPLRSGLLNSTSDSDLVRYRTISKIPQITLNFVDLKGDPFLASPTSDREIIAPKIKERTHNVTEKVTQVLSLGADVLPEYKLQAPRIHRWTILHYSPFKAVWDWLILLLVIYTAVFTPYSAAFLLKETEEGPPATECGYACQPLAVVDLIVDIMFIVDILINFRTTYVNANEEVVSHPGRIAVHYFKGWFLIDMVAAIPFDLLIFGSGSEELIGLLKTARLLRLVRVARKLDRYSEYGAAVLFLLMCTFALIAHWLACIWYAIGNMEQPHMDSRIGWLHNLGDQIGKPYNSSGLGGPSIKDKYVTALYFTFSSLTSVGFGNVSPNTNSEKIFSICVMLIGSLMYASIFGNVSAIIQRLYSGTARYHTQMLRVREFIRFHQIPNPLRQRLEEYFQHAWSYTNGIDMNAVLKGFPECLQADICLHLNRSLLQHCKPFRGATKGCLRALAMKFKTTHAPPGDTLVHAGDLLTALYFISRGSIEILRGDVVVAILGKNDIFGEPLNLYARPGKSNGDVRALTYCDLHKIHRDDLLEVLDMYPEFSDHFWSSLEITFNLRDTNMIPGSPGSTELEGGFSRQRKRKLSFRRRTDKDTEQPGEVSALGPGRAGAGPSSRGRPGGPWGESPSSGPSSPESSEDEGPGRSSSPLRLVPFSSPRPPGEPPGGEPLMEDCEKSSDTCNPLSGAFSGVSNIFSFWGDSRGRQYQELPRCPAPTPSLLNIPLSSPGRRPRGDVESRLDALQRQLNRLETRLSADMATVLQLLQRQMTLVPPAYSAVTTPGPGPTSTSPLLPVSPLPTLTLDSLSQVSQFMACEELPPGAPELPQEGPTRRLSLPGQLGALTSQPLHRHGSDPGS
row,Structure (SMILES),"hERG current change (%, negative = inhibition) at 10uM [%]"
1,O=C(CCNC(=O)c1ccccc1Cl)NCCc1ccc(Cl)cc1,-5.19
2,O=C(N/N=C/c1ccc2c(c1)OCO2)c1ccc(NC(=O)c2ccc(F)cc2)cc1,12.5
3,Cc1cc(OCC(=O)NCCc2ccc(S(N)(=O)=O)cc2)c2c(C)cc(=O)oc2c1,16.5
4,Cn1c2ccccc2c2nnc(SCC(=O)Nc3ccccc3F)nc21,-12.5
5,O=C(CN(C(=O)CCC(=O)Nc1nccs1)c1ccccc1F)NCC1CCCO1 (stereo not shown),5.7
6,Cc1sc2ncn(CC(=O)OCC(=O)NC(C)(C)C)c(=O)c2c1C,14.3
7,CCOC(=O)c1c(C)[nH]c2c1cc(O)c1ccccc12,-1.97
8,CCN(CC)S(=O)(=O)c1ccc(NC(=O)c2ccc(CN3CCOCC3)cc2)cc1,-0.516
9,CC(=O)n1cc(C2C(=O)CC(C)(C)CC2=O)c2ccccc21,2.39
10,Cc1oc(/N=C/c2ccc(Cl)cc2)c(C#N)c1C,1.21
11,O=C(NC1CCCC1)C(c1ccsc1)N(Cc1ccco1)C(=O)Cc1cccs1 (stereo not shown),-16.1
12,O=S(=O)(/N=C(/c1ccccc1)N1CCOCC1)c1ccc(F)cc1,23.7
13,CC1=C(C#N)C(Nc2ccc(Cl)cn2)(C(F)(F)F)C(=O)N1 (stereo not shown),2.3
14,C[C@H]1CCC2[C@](C)(CO)[C@@H](O)CC[C@]2(C)[C@@]12CCC(CO)(CCO)O2 (stereo partly shown),25.2
15,CC1CCN(c2ccc(-c3cccc(NC(=O)c4ccco4)c3)nn2)CC1,-28.8
16,Cc1cccc2sc(NC(=O)C3CSC4(C)CCC(=O)N34)nc12 (stereo not shown),-9.84
17,COCCNC(=O)CSc1nc(-c2ccccc2)c(-c2ccccc2)o1,-35.9
18,CC(=O)Nc1ccc(NC(=O)CSc2nnc(-c3cc4ccccc4o3)n2C)cc1,2.16
19,Fc1ccc(N/N=C/c2cccnc2)c(F)c1,24.4
20,CN(C)C1=NCCN1CC1CCCC1,16.3
21,COCCCNC(=O)c1ccc(S(=O)(=O)c2ccc(Cl)cc2)c(NC(C)=O)c1,8.79
22,Cc1ccc(Cl)cc1NC(=S)Nn1cnnc1,15.9

row,Structure (SMILES),"hERG current change (%, negative = inhibition) at 10uM [%]"
1,CN1C(=O)/C(=C\c2ccc(N3CCCCCC3)cc2)C(=O)NC1=S,23.8
2,CC1(C)CCN2CCC(C)(C)c3c(O)ccc1c32.CS(=O)(=O)O,6.38
3,COc1ccc(CCNS(=O)(=O)CCNC(=O)c2ccccc2)cc1,-5.82
4,O=C(NC1CC1)c1nc(Cn2cc([N+](=O)[O-])cn2)no1,15.9
5,COCCNCC1C(Oc2ccc(Cl)cc2)C(=O)N1c1ccccc1C.Cl (stereo not shown),-8.44
6,CC1CCCC(NC(=S)NC(=O)c2ccccc2Br)C1C (stereo not shown),8.97
7,Cc1ccc(-c2cnc3c(Cl)c(C)nn3c2)cc1,9.33
8,COc1ccc(/C=C2/SC(=S)N(c3ccc(S(=O)(=O)Nc4nccs4)cc3)C2=O)cc1,13
9,CCOc1ccccc1-c1nc(-c2ccc(NC(=O)Cc3ccc(OC)cc3)cc2)no1,16.8
10,COC(=O)c1cc(=O)nc2sc3ccccc3n12,5.1
11,NC(=O)[C@@H]1CCNc2c(I)cc([N+](=O)[O-])cc2C(=O)N[C@@H](CCC(=O)O)C(=O)N[C@@H](CO)C(=O)N1,25
12,Cn1c(=O)c2c(nc(OCc3cccnc3)n2Cc2c(F)cccc2Cl)n(C)c1=O,1.03
13,O=C(NCCN1CCCC(O)C1)c1cc(COc2ccc(F)cc2Cl)on1 (stereo not shown),-23
14,C=CCn1c(O)c(C2=c3ccccc3=NC2=O)sc1=Nc1ccc(O)cc1,-13.4
15,CCc1ccc(NC(=O)Cn2nc(C)n3cccc3c2=O)cc1,15
16,COC(=O)c1cscc1S(=O)(=O)Cc1ccccc1,5.98
17,COc1cccc(N=Nc2c(N)[nH][nH]c2=O)c1,8.67
18,CCOc1ccc(C(=S)N2CCCC2)cc1OC,20.1
19,Cc1noc(C(=O)Nc2ccc3c(c2)OCO3)c1Cl,-1.49
20,C=CCN(CC(=O)Nc1c(C)cccc1CC)C(=O)SCCC,1.41
21,CCn1cc(CNC(=O)C2CCC(=O)N(Cc3ccc(Cl)cc3)C2)cn1 (stereo not shown),-14.2
22,COc1ccc(-c2nc(CN3CCC(C(=O)N4CCOCC4)CC3)c(C)o2)cc1C,-6.98

row,Structure (SMILES),"hERG current change (%, negative = inhibition) at 10uM [%]"
1,CCC(CC)c1nc2cc(OC)c(OC)cc2c(=O)o1,18.2
2,O=C(O)C1CC(=O)N(c2ccc(Br)cc2)C1 (stereo not shown),4.94
3,COCCN=C1NN=C(c2ccc(NC(C)=O)cc2)CS1,8.57
4,CCN(CC)S(=O)(=O)c1ccc(N2CCOCC2)c(NC(=O)COc2ccccc2C#N)c1,-3.3
5,Cc1ccc(NC(=O)c2sccc2SCc2cccc(C(F)(F)F)c2)cc1,25
6,Cc1ccc(N2C(=O)c3n[nH]c(C)c3C2c2ccco2)cc1 (stereo not shown),-7.79
7,CNC(=S)NNC(=O)c1cccc(C(F)(F)F)c1,2.73
8,COP(=O)(OC)C(Nc1ccccc1)c1ccccc1 (stereo not shown),11.4
9,C(#CCN1CCOCC1)COCC#Cc1ccccc1.Cl,-2.16
10,O=C(c1ccc2c(c1)OCO2)N1CCN(S(=O)(=O)c2ccc(Br)cc2Cl)CC1,-40.6
11,O=C(O)CCCC(=O)N1CCOCCOCCOCCOCC1,17.1
12,Cc1cc2ncn(/N=C/c3ccc4c(c3)OCO4)c2cc1C,10.9
13,C=CCC(C(=O)OC)(C(=O)OC)c1ccc([N+](=O)[O-])cn1,-9.74
14,O=C(NCCc1ccccc1)C1CCC(CNc2c(N3CCCCC3)c(=O)c2=O)CC1 (stereo not shown),18.6
15,COc1ccc(CCNC(=O)/C(C#N)=C/c2cccc(OCc3ccccc3)c2)cc1OC,-3.66
16,O=C(O)CCNC(=O)c1ccc(NC(=O)Cc2ccc(Cl)cc2)cc1,21.8
17,NC(=O)NC(=O)COC(=O)c1cccnc1Nc1ccccc1F,14.1
18,S=C(NCc1ccccc1)NCc1ccccc1Cl,5.84
19,COC(=O)C1=CN(c2cc(C)cc(C)c2)C=C(C(=O)OC)C1c1cccc(F)c1,26.8
20,O=C1CC(NNC(=O)c2cccc(F)c2)C(=O)N1 (stereo not shown),17.9
21,N/C(=N\OC(=O)Nc1ccc(Cl)c(Cl)c1)c1ncc(C(F)(F)F)cc1Cl,1.28
22,COc1nccnc1NS(=O)(=O)c1ccc(NC(=S)NC(=O)c2ccc(F)cc2)cc1,7.4

row,Structure (SMILES),"hERG current change (%, negative = inhibition) at 10uM [%]"
1,Cc1ccccc1OCC(=O)Nc1ccc2c(c1)C(=O)c1ccccc1C2=O,12.4
2,CCc1nnc(NC(=O)CSc2nnc(C3CC3)n2C)s1,1.31
3,CC(=O)Nc1ccc(S(=O)(=O)NCCC(=O)OC(C)C(=O)c2ccc(C)cc2)cc1 (stereo not shown),-6.85
4,Cc1ccc(CC(CC(=O)NCCc2ccc3c(c2)OCO3)C(=O)O)cc1 (stereo not shown),0.663
5,CC(=O)c1ccc(S(=O)(=O)N2Cc3ccccc3CC2C(=O)O)cc1 (stereo not shown),7.05
6,COc1cc(NC(=O)COC(=O)c2n[nH]c3ccccc23)c(C)cc1[N+](=O)[O-],20.4
7,CC(=O)Nc1ccc(OCC(O)CN2CCN(S(=O)(=O)c3ccc(NC(C)=O)cc3)CC2)cc1 (stereo not shown),-8.63
8,O=C(CSc1nc2ccc(Nc3nc(N4CCOCC4)nc(N4CCOCC4)n3)cc2s1)Nc1ccccc1Cl,13
9,O=C(NCC(c1ccco1)N1CCN(c2ccccc2F)CC1)c1ccc2c(c1)OCO2 (stereo not shown),-20.8
10,CC1CCN(c2cc(N)c(Cl)cc2[N+](=O)[O-])CC1,-4.38
11,O=C(C1CCC(CNS(=O)(=O)c2cccc3nsnc23)CC1)N1CC=C(c2ccccc2)CC1 (stereo not shown),-10.3
12,Cc1ccc(-c2nnn(C(C)C(=O)N3c4ccccc4CCc4ccccc43)n2)cc1 (stereo not shown),6.37
13,O=C(Nc1cccc(C(=O)N2CCN(c3ccc(F)cc3)CC2)c1)c1ccccc1,-58.7
14,CCOC(=O)COn1c(=O)c(-c2ccc(Cl)cc2)[n+]([O-])c2ccccc21,-4.24
15,COc1ccc(N/C=C/C(=O)c2ccc(C)cc2)c([N+](=O)[O-])c1,16.9
16,COc1cccc(NC(=O)NC2CCN(CC(=O)Nc3ccccc3[N+](=O)[O-])CC2)c1,-39.4
17,Cc1ccc(N2C(=O)C(NC(=O)c3c(F)cccc3F)(C(F)(F)F)C3=C2CC(C)(C)CC3=O)cc1 (stereo not shown),9.34
18,CCOC(=O)C1=C(CC)OC(N)=C(C#N)C1c1ccc(OC)c(OC)c1OC (stereo not shown),0.305
19,O=C(O)/C(=C\c1ccc(Cl)cc1)c1ccc(F)cc1,4.73
20,Cc1cccc(-n2ncc3c(Nc4ccc(F)cc4)ncnc32)c1,9.56
21,Cc1ccc(S(=O)(=O)NCC(=O)N(CC(=O)NC2CCCCC2)Cc2ccco2)cc1,-38.7
22,CCCCCN1CC(=O)N2Cc3[nH]c4ccccc4c3C[C@H]2C1=O,-7.47
